This is an account of results in the supplement of paper PMC11417369.

± gives the standard deviation of the averaged measurements. The list shows a part of the results.

The assay relates to PfAP2-EXP AP2 domain (GST-tagged). The experiment in a line: gcPBM binding intensity (ln(normalized median fluorescence intensity)); higher = stronger DNA binding. The procedure, abridged: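 GST-tagged P. falciparum DNA-binding domains, expressed in E. coli (about 25 μg on average), were applied for 1 h to an Agilent 4 × 180k array of primer-extended double-stranded 36-bp intergenic genomic probes plus negative controls. The binding buffer was 1× PBS with 1% milk, 0.2 mg/ml BSA, 0.5% salmon testes DNA and 0.03% Triton X-100. Bound protein was detected with Alexa488 anti-GST antibody and scanned at 488 nm. Binding intensity is the highest Masliner-normalised natural-log median intensity across replicate spots of either probe orientation.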
With “ACCTATATAAGTTATACACACAAATATAGATATATA [CACACA_site7356]”, the “gcPBM binding intensity (ln)” value is 8.38 ± 0.32.

For the sequence “TTTACAGAAAGTTACATACACACTAATATTTACACC [CACACA_site1009]”, the “gcPBM binding intensity (ln)” value was found to be 8.69 ± 0.25.

With “ATTTAAGATTTAATCACACACATATAGATTATAGAC [CACACA_site7383]”, the “gcPBM binding intensity (ln)” value turned out to be 8.61 ± 0.33.

For “ATGAAGAAGTGTAAATGTACATTTTATGTAGAACAA [XGTACX_site6925]”, the “gcPBM binding intensity (ln)” value is 8.93 ± 0.48.

In the case of “TTATTTTTTTTTTATTGTACTAGGAAAATTTCGATA [XGTACX_site702]”, the “gcPBM binding intensity (ln)” value was 8.36 ± 0.4.

Take “TATAAGAGGATATATACACACAAAAATATGTACAGT [CACACA_site6885]”: the “gcPBM binding intensity (ln)” value was 8.73 ± 0.31.

As to “TTTATATGTATTAAGTGTACACATATAATGTGTTTG [XGTACX_site6629]”, the “gcPBM binding intensity (ln)” value was determined as 8.48 ± 0.27.

Turning to “CTTCCTTAGGAATGTACACACATATATAATATGTTG [CACACA_site461]”, the “gcPBM binding intensity (ln)” value amounted to 8.53 ± 0.4.

Turning to “TACAGACAGAAATGCACACACATATTTATATTTATA [CACACA_site7139]”, the “gcPBM binding intensity (ln)” value was determined as 8.59 ± 0.26.

On to “AATAAAAAAGAATATACACACATAAATATAAAATAT [CACACA_site683]”, for which the “gcPBM binding intensity (ln)” value stood at 8.66 ± 0.46.

For “AATTAAAAAGAAAAAAGTACATATTTTTTTAAAAAA [XGTACX_site7384]”, the “gcPBM binding intensity (ln)” value turned out to be 8.46 ± 0.3.

Regarding “AAATATATATTTCTTAGTACATATGTATTTTTTTTT [XGTACX_site938]”, the “gcPBM binding intensity (ln)” value was 8.54 ± 0.54.

“ATATATATATATATGTGTACTAATAAGGTTAAATAA [XGTACX_site1535]”: the “gcPBM binding intensity (ln)” value is 10.1 ± 0.41.

Take “TTTGACAAATTATTGTGTACACAATATTATTATATA [XGTACX_site8320]”: the “gcPBM binding intensity (ln)” value is 8.69 ± 0.21.

On to “ACAAAATGTAGATATTGTACATATTGTAGATATTGT [XGTACX_site7619]”, for which the “gcPBM binding intensity (ln)” value turned out to be 8.46 ± 0.42.

For “ATATATATGCATAATACACACATCATATAATTAACC [CACACA_site1643]”, the “gcPBM binding intensity (ln)” value was determined as 8.73 ± 0.35.

In the case of “TTCATACATAGAAAATGTACATATATATATATATAT [XGTACX_site1895]”, the “gcPBM binding intensity (ln)” value was determined as 10.1 ± 0.45.

Turning to “AAAAAAAAAAACAATACATGCATAATATTAATAAAA [TGCATGCA_site913]”, the “gcPBM binding intensity (ln)” value stood at 8.76 ± 0.55.

“AAGATATGTACTAATACACACACATATATATATATA [CACACA_site8249]”: the “gcPBM binding intensity (ln)” value amounted to 10.1 ± 0.45.

As for “TACAAAATATTTTACACACACATATAAATACAGATA [CACACA_site5447]”, the “gcPBM binding intensity (ln)” value is 8.72 ± 0.44.

On to “AAAGAAAAAAAATAATGTACTTATGTATTTCAGAAA [XGTACX_site3570]”, for which the “gcPBM binding intensity (ln)” value amounted to 8.515 ± 0.007.

With “ATTTTTTTTTTTAATACACACAATTTTGATGAAGCA [CACACA_site3157]”, the “gcPBM binding intensity (ln)” value was found to be 8.26 ± 0.41.

With “TATAATATTTGGTGCACACAAATTAACAACTGTTTA [CACACA_site3742]”, the “gcPBM binding intensity (ln)” value turned out to be 9.47 ± 0.47.

On to “ACATTACCATATAAAACACACAAACATACATACATA [CACACA_site7709]”, for which the “gcPBM binding intensity (ln)” value was determined as 8.69 ± 0.58.

Consider “TTTCATAAGAGAAAGACACACAAATATATATTTATT [CACACA_site827]”, for which the “gcPBM binding intensity (ln)” value amounted to 8.38 ± 0.44.
